Data reported in the supplement of paper PMC8728848.
The list shows a part of the results.

Key:
Experiment in all cases: glycan array binding signal (z-score within array); higher = stronger binding
Details in all cases: glycan notation: IUPAC condensed, linker removed
[1] = biological target: Fuc(a1-2)[Gal(a1-3)]Gal(b1-4)[Fuc(a1-3)]GlcNAc(b1-3)GalNAc
Procedure, shortened: (§1)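 From the Consortium for Functional Glycomics database, 3228 arrays were curated, keeping only those whose protein sequence was available. Binding is given as a within-array Z-score averaged across arrays sharing a protein sequence and across linkers. Negative Z-scores can be read as non-binding.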

[2] = biological target: Fuc(a1-2)[Gal(a1-4)]Gal(b1-4)GlcNAc
Procedure, shortened: as §1

[3] = biological target: Fuc(a1-2)[GalNAc(a1-3)]Gal
Procedure, shortened: as §1

[4] = biological target: Fuc(a1-2)[GalNAc(a1-3)]Gal(b1-3)GalNAc(a1-3)[Fuc(a1-2)]Gal(b1-4)GlcNAc
Procedure, shortened: as §1

[5] = biological target: Fuc(a1-2)[GalNAc(a1-3)]Gal(b1-3)GalNAc(b1-3)Gal(a1-4)Gal(b1-4)Glc
Procedure, shortened: as §1

[6] = biological target: Fuc(a1-2)[GalNAc(a1-3)]Gal(b1-3)GlcNAc
Procedure, shortened: as §1

[7] = biological target: Fuc(a1-2)[GalNAc(a1-3)]Gal(b1-3)GlcNAc(b1-2)Man(a1-3)[Fuc(a1-2)[GalNAc(a1-3)]Gal(b1-3)GlcNAc(b1-2)Man(a1-6)]Man(b1-4)GlcNAc(b1-4)GlcNAc
Procedure, shortened: as §1

[8] = biological target: Fuc(a1-2)[GalNAc(a1-3)]Gal(b1-3)GlcNAc(b1-2)Man(a1-3)[Fuc(a1-2)[GalNAc(a1-3)]Gal(b1-3)GlcNAc(b1-2)Man(a1-6)]Man(b1-4)GlcNAc(b1-4)[Fuc(a1-6)]GlcNAc
Procedure, shortened: as §1

[9] = biological target: Fuc(a1-2)[GalNAc(a1-3)]Gal(b1-3)GlcNAc(b1-3)GalNAc
Procedure, shortened: as §1

[10] = biological target: Fuc(a1-2)[GalNAc(a1-3)]Gal(b1-3)GlcNAc(b1-6)GalNAc
Procedure, shortened: as §1

[11] = biological target: Fuc(a1-2)[GalNAc(a1-3)]Gal(b1-4)Glc
Procedure, shortened: as §1

[12] = biological target: Fuc(a1-2)[GalNAc(a1-3)]Gal(b1-4)GlcNAc
Procedure, shortened: as §1

[13] = biological target: Fuc(a1-2)[GalNAc(a1-3)]Gal(b1-4)GlcNAc(b1-2)Man
Procedure, shortened: as §1

[14] = biological target: Fuc(a1-2)[GalNAc(a1-3)]Gal(b1-4)GlcNAc(b1-2)Man(a1-3)[Fuc(a1-2)[GalNAc(a1-3)]Gal(b1-4)GlcNAc(b1-2)Man(a1-6)]Man(b1-4)GlcNAc(b1-4)GlcNAc
Procedure, shortened: as §1

[15] = biological target: Fuc(a1-2)[GalNAc(a1-3)]Gal(b1-4)GlcNAc(b1-2)Man(a1-3)[Fuc(a1-2)[GalNAc(a1-3)]Gal(b1-4)GlcNAc(b1-2)Man(a1-6)]Man(b1-4)GlcNAc(b1-4)[Fuc(a1-6)]GlcNAc
Procedure, shortened: as §1

[16] = biological target: Fuc(a1-2)[GalNAc(a1-3)]Gal(b1-4)GlcNAc(b1-3)Gal(b1-4)GlcNAc
Procedure, shortened: as §1

[17] = biological target: Fuc(a1-2)[GalNAc(a1-3)]Gal(b1-4)GlcNAc(b1-3)Gal(b1-4)GlcNAc(b1-3)Gal(b1-4)GlcNAc
Procedure, shortened: as §1

[18] = biological target: Fuc(a1-2)[GalNAc(a1-3)]Gal(b1-4)GlcNAc(b1-3)GalNAc
Procedure, shortened: as §1

[19] = biological target: Fuc(a1-2)[GalNAc(a1-3)]Gal(b1-4)GlcNAc(b1-3)[Fuc(a1-2)[GalNAc(a1-3)]Gal(b1-4)GlcNAc(b1-6)]GalNAc
Procedure, shortened: as §1

[20] = biological target: Fuc(a1-2)[GalNAc(a1-3)]Gal(b1-4)GlcNAc(b1-6)GalNAc
Procedure, shortened: as §1

[21] = biological target: Fuc(a1-2)[GalNAc(a1-3)]Gal(b1-4)[Fuc(a1-3)]GlcNAc
Procedure, shortened: as §1

[22] = biological target: Fuc(a1-2)[GalNAc(a1-3)]Gal(b1-4)[Fuc(a1-3)]GlcNAc(b1-3)GalNAc
Procedure, shortened: as §1

[23] = biological target: Fuc(a1-2)[GalNAc(a1-4)]Gal(b1-4)GlcNAc
Procedure, shortened: as §1

[24] = biological target: Fuc(a1-2)[GalNAc(b1-3)]Gal
Procedure, shortened: as §1

Fuc(a1-3)GlcNAc = biological target: Fuc(a1-3)GlcNAc
Procedure, shortened: as §1

[25] = biological target: Fuc(a1-3)[Gal(b1-4)]Glc6S
Procedure, shortened: as §1

[26] = biological target: Fuc(a1-3)[Gal(b1-4)]GlcNAc
Procedure, shortened: as §1

[27] = biological target: Fuc(a1-3)[Gal(b1-4)]GlcNAc(b1-2)Man
Procedure, shortened: as §1

[28] = biological target: Fuc(a1-3)[Gal(b1-4)]GlcNAc(b1-2)Man(a1-3)[Fuc(a1-3)[Gal(b1-4)]GlcNAc(b1-2)Man(a1-6)]Man(b1-4)GlcNAc(b1-4)GlcNAc
Procedure, shortened: as §1

[29] = biological target: Fuc(a1-3)[Gal(b1-4)]GlcNAc(b1-2)Man(a1-3)[Fuc(a1-3)[Gal(b1-4)]GlcNAc(b1-2)Man(a1-6)]Man(b1-4)GlcNAc(b1-4)[Fuc(a1-6)]GlcNAc
Procedure, shortened: as §1

[30] = biological target: Fuc(a1-3)[Gal(b1-4)]GlcNAc(b1-3)Gal(b1-3)[Fuc(a1-4)]GlcNAc
Procedure, shortened: as §1

[31] = biological target: Fuc(a1-3)[Gal(b1-4)]GlcNAc(b1-3)Gal(b1-4)[Fuc(a1-3)]GlcNAc
Procedure, shortened: as §1

[32] = biological target: Fuc(a1-3)[Gal(b1-4)]GlcNAc(b1-3)Gal(b1-4)[Fuc(a1-3)]GlcNAc(b1-3)Gal(b1-4)[Fuc(a1-3)]GlcNAc
Procedure, shortened: as §1

[33] = biological target: Fuc(a1-3)[Gal(b1-4)]GlcNAc(b1-3)GalNAc
Procedure, shortened: as §1

[34] = biological target: Fuc(a1-3)[Gal(b1-4)]GlcNAc(b1-4)Gal(b1-4)[Fuc(a1-3)]GlcNAc
Procedure, shortened: as §1

[35] = biological target: Fuc(a1-3)[Gal(b1-4)]GlcNAc(b1-4)Gal(b1-4)[Fuc(a1-3)]GlcNAc(b1-4)Gal(b1-4)[Fuc(a1-3)]GlcNAc
Procedure, shortened: as §1

[36] = biological target: Fuc(a1-3)[Gal(b1-4)]GlcNAc(b1-6)GalNAc
Procedure, shortened: as §1

[37] = biological target: Fuc(a1-3)[Gal(b1-4)]GlcNAc(b1-6)[Gal(b1-3)GlcNAc(b1-3)]Gal(b1-4)Glc
Procedure, shortened: as §1

B1: AMA (Arum maculatun) (protein)
chain: MAKLLLLLLLPAIVGLAVPRSAAAVGSNYMLSGETLNTDGRLTNGELTLIMQVDCNLVLYHGGWQSNTANNGRDCKLTLTDFGELVIKSGTGSTVWSSGSKQSMKGNYAAVVHPEGRLVIYGPSVFKINPSGAGLNGLPLRNIPLTNNMLFSGQVLYGDGTLSARNHKLVMQGDCNMVLYGGKYGWQSNTHGNGKYCFAMLTHKGELVIRDDDFKSVWSSKSSSKQGDYVFILQDDSLAIIYGPAVFSTGSKKMISMVTN
For B1, the “glycan array binding signal (z-score)” value [1] was -0.211, the “glycan array binding signal (z-score)” value [2] was -0.207 and the “glycan array binding signal (z-score)” value [3] was -0.219. The “glycan array binding signal (z-score)” value [4] was -0.215, the “glycan array binding signal (z-score)” value [5] was -0.22 and the “glycan array binding signal (z-score)” value [6] was -0.218. For the same binder, the “glycan array binding signal (z-score)” value [7] was 0.844, the “glycan array binding signal (z-score)” value [8] was 0.701 and the “glycan array binding signal (z-score)” value [9] was -0.217. The “glycan array binding signal (z-score)” value [10] was -0.216, the “glycan array binding signal (z-score)” value [11] was -0.213 and the “glycan array binding signal (z-score)” value [12] was -0.08. The “glycan array binding signal (z-score)” value [13] was -0.221, the “glycan array binding signal (z-score)” value [14] was -0.207 and the “glycan array binding signal (z-score)” value [15] was -0.026. For the same binder, the “glycan array binding signal (z-score)” value [16] was -0.219, the “glycan array binding signal (z-score)” value [17] was -0.173 and the “glycan array binding signal (z-score)” value [18] was -0.212. The “glycan array binding signal (z-score)” value [19] was -0.217, the “glycan array binding signal (z-score)” value [20] was -0.222 and the “glycan array binding signal (z-score)” value [21] was -0.204. The “glycan array binding signal (z-score)” value [22] was -0.204, the “glycan array binding signal (z-score)” value [23] was -0.211 and the “glycan array binding signal (z-score)” value [24] was -0.214. For the same binder, the “glycan array binding signal (z-score)” value (Fuc(a1-3)GlcNAc) was -0.221, the “glycan array binding signal (z-score)” value [25] was -0.206 and the “glycan array binding signal (z-score)” value [26] was -0.217. For the same binder, the “glycan array binding signal (z-score)” value [27] was -0.213, the “glycan array binding signal (z-score)” value [28] was 0.429 and the “glycan array binding signal (z-score)” value [29] was -0.205. For the same binder, the “glycan array binding signal (z-score)” value [30] was -0.198, the “glycan array binding signal (z-score)” value [31] was -0.202 and the “glycan array binding signal (z-score)” value [32] was -0.211. The “glycan array binding signal (z-score)” value [33] was -0.215, the “glycan array binding signal (z-score)” value [34] was -0.223 and the “glycan array binding signal (z-score)” value [35] was -0.232. For the same binder, the “glycan array binding signal (z-score)” value [36] was -0.184 and the “glycan array binding signal (z-score)” value [37] was -0.211.
